# Measured values: PubChem BioAssay AID504466 (National Center for Advancing Translational Sciences (NCATS), 2011)
# Out of some 330,000 compounds screened, about 4,200 (1.3%) were called active. Inconclusive means that the source gave no clear call. Such entries were picked first, then a sample of the others. Calls come from the whole dose curve; as a rule, active = well fitted activation curve with a large enough effect; inconclusive = small, poorly fitted or top-dose-only effect; inactive = no such curve, though single readings can be large or run the other way. Potencies of inconclusive entries are doubtful fits and often do not repeat.
# Experiment: qHTS screen for small molecules that induce genotoxicity in human embryonic kidney (HEK293T) cells expressing luciferase-tagged ELG1; note: nearly all actives have a fitted effect of over 60% in size; for activity change, positive = activation: % of control where 0% means no effect
# Settings: HEK293T ELG1-luciferase reporter, luminescence, 16 h; series mostly up to 46 µM; activity change, positive = activation: at the top concentration
# How it was run: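 Luminescence read-out: rising ELG1-luciferase signal, reflecting elevated ELG1 protein under genetic stress, flags genotoxic compounds. Cells were treated for 16 hr at 37 °C before ONE-Glo detection.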
# Potency is the fitted concentration of half-maximal effect; tags give direction and shape of the fitted curve.
SMILES,Potency,"activity change, positive = activation"
Cc1sc(N)nc1-c1ccc(Oc2ccccc2)cc1,"inconclusive: 16.4 µM [activator, partial curve, poor fit]",–
COc1cc(Cl)ccc1OCc1cc(C(=O)N2CC[C@@H]3CCCC[C@H]3C2)no1,"inconclusive: 20.6 µM [activator, single point]",–
Cc1ccc(C(=O)NCC(=O)OCC(=O)Nc2cc(S(=O)(=O)N3CCOCC3)ccc2Cl)s1,–,inactive: 1.16%
Cn1c(N2CCOCC2)c(/C=N/OC(=O)c2ccc(F)cc2)c2ccccc21,–,inactive: -5.33%
CC(C)CCNC(=O)CCCOc1cc(=O)n(C)c2ccccc12,"inconclusive: 29.1 µM [activator, single point]",–
CCN1C(=O)[C@@H]2[C@@H](c3ccc(-c4ccc(Cl)c(Cl)c4)cc3)N3CCCC[C@@]3(C(=O)OC)[C@@H]2C1=O,–,inactive: 0.862%
Cc1nc(NC(=O)CCc2ccccc2)ccc1Br,"inconclusive: 14.6 µM [activator, partial curve]",–
O=C(Nc1ccsc1C(=O)O)c1ccc(Cl)cc1,active: 23.1 µM,–
Cc1cc(C(=O)N/N=C/c2cccs2)n[nH]1,"inconclusive: 13 µM [activator, partial curve, poor fit]",–
N#C/C(=C(/O)C(Cl)c1ccccc1)c1nc2ccccc2s1 (configuration not stated),"inconclusive: 11.2 µM [activator, partial curve, poor fit]",–
CCOCCCNC(=O)c1ccc(OC)cc1,"inconclusive: 23.1 µM [activator, partial curve, poor fit]",–
COc1cccc2sc(Nc3nc(-c4ccccn4)cs3)nc12,–,inactive: 9.3%
CN=C1C=C/C(=N/N=c2\ccn(O)cc2C)C=C1C,"inconclusive: 20.6 µM [activator, single point]",–
C=CCNC(=S)NNC(=O)C(CCCC)CC(C)(C)O (configuration not stated),–,inactive: -3.2%
O=C(Nc1nccs1)c1cn2ccccc2n1,"inconclusive: 0.651 µM [activator, full curve]",–
c1ccc(Oc2cccc3cccnc23)nc1,–,inactive: 1.99%
COCCCn1c(=O)c2sccc2n(Cc2ccccc2C)c1=O,–,inactive: 2.21%
Cc1nc(N)sc1-c1csc(Nc2ncccn2)n1,active: 23.1 µM,–
CCN1CCN(c2c(Cl)cccc2NC(=O)c2ccc([N+](=O)[O-])cc2)CC1,–,inactive: -2.92%
CCc1ccc(OCC(=O)NC(=S)Nc2cccc(CO)c2)c(Br)c1,"inconclusive: 1.41 µM [activator, full curve, poor fit]",–
O=[N+]([O-])c1ccc(/C=C/c2ccc3cccc([N+](=O)[O-])c3n2)cc1,–,inactive: 3.86%
Cc1occc1C(=O)OCC(=O)Nc1ccc(F)cc1,"inconclusive: 14.1 µM [activator, single point]",–
O=C(NCCc1ccccc1)C1CCN(C2CCN(Cc3ccc(CO)o3)CC2)CC1,–,inactive: 1.33%
O=c1nccc(N/N=C/c2ccccc2)[nH]1,"inconclusive: 16.4 µM [activator, partial curve, poor fit]",–
COc1cccc(CNc2cccc3cccnc23)c1O,"inconclusive: 17.8 µM [activator, single point]",–
O=C(Nc1ccc(N2CCOCC2)cc1)c1cnccn1,"inconclusive: 0.103 µM [activator, full curve]",–

SMILES,Potency,"activity change, positive = activation"
Cc1cc(=O)oc2cc(NC(=O)c3ccnn3C)ccc12,active: 16.4 µM,–
CC(C)(C)c1ccc(-c2nnc(SCCN3C(=O)c4ccccc4C3=O)o2)cc1,–,inactive: -3.03%
COc1cccc(/C=N/NC(=O)c2cc3c(OC)ccc(OC)c3[nH]2)c1O,"inconclusive: 32.6 µM [activator, partial curve, poor fit]",–
O=C(/C=C/Nc1ccc(F)cc1Br)c1ccccc1,active: 0.164 µM,–
O=C(CN1CCN(Cc2ccccc2)CC1)N1CCCCCC1,–,inactive: 0.693%
COc1cc(C2Nc3ccccc3C(=O)N2c2ccc(Cl)cc2)c(Cl)cc1OCC(=O)O (configuration not stated),"inconclusive: 18.4 µM [activator, partial curve]",–
O=C(Oc1ccc(-c2nccc(-c3ccccn3)n2)cc1)c1cccc(C(F)(F)F)c1,"inconclusive: 20.6 µM [activator, single point]",–
COc1ccc2nc(N3C(=O)C(O)=C(C(=O)c4ccco4)C3c3ccc(C)o3)sc2c1 (configuration not stated),–,inactive: 1.55%
COc1ccc(NC(=O)c2cc(-c3ccccc3OC)on2)cc1,"inconclusive: 18.4 µM [activator, partial curve, poor fit]",–
Cc1cccc(NC(=O)c2ccc3c(Cl)c4c(nc3c2)CCCC4)n1,active: 2.91 µM,–
Cc1ccc(N/N=C(\C#N)C(=N)N2CCOCC2)cc1,"inconclusive: 20.6 µM [activator, single point]",–
O=C(Nc1ccc(N2CCCCC2)cc1)c1ccc(F)cc1F,"inconclusive: 0.92 µM [activator, full curve]",–
Cc1ccn2cc(-c3cc4ccccc4oc3=O)nc2c1,active: 0.461 µM,–
O=C1S/C(=C\c2cccs2)C(=O)N1c1ccc(O)cc1,"inconclusive: 14.6 µM [activator, partial curve, poor fit]",–
Cc1ccc(C(=O)/C=C2\NCC(C)NC2=O)cc1 (configuration not stated),"inconclusive: 0.58 µM [activator, partial curve, poor fit]",–
Cc1csc(=O)n1CC(=O)OCC(=O)Nc1ccccc1C(C)C,–,inactive: -0.983%
COc1ccc(OCCOC(=O)c2cccs2)cc1,active: 23.1 µM,–
CSc1ccccc1NC(=O)c1cnc2sc(C)cn2c1=O,active: 3.26 µM,–
O=S(=O)([O-])C(c1ccccc1)[n+]1ccccc1 (configuration not stated),–,inactive: -2.06%
O=C(CCNS(=O)(=O)c1ccc(Br)cc1)NC1CCCCC1,"inconclusive: 0.0058 µM [activator, full curve, poor fit]",–
O=C(CSc1ccc(-c2ccccn2)nn1)Nc1ccc(F)c(F)c1,"inconclusive: 29.1 µM [activator, single point]",–
CC(C)OC(=O)Cc1nc2sc(-c3ccccc3)cc2c(=O)[nH]1,"inconclusive: 16.4 µM [activator, partial curve]",–
Cc1ccc(O)c(NC(=S)NC(=O)/C=C/c2ccco2)c1,"inconclusive: 20.6 µM [activator, partial curve, poor fit]",–
CCOC(=O)c1c(C)[nH]c(C=Nc2ccc(OC)cc2)c1O,"inconclusive: 13 µM [activator, partial curve, poor fit]",–
O=C(OCC(=O)N1CCCCC1)c1cc(=O)[nH]c2ccccc12,"inconclusive: 23.1 µM [activator, partial curve, poor fit]",–
O=C(Nc1ccc(Br)c(Cl)c1)c1ccco1,active: 20.6 µM,–

SMILES,Potency,"activity change, positive = activation"
c1ccc(-c2nc3ccccc3[nH]2)nc1,"inconclusive: 5.8 µM [activator, full curve]",–
OCc1cn(-c2ccccc2)nc1-c1ccco1,"inconclusive: 20.6 µM [activator, partial curve]",–
COc1ccc(C(CNC(=O)C(=O)NC2CCCCC2)N2CCN(C)CC2)cc1 (configuration not stated),–,inactive: 25.6%
Cc1[nH]c2ccccc2c1C(=O)CSC(=S)N(C)C,"inconclusive: 25.9 µM [activator, partial curve, poor fit]",–
COc1cc(/C=C/c2noc(-c3ccccc3O)n2)ccc1OC(C)=O,active: 13 µM,–
O=C1N[C@H](Cc2ccccc2)COC(=O)[C@H](Cc2ccc(F)cc2)CC/C=C/C[C@@H]1CC(=O)N(CCO)Cc1ccccc1,–,inactive: -12.2%
NC(=O)c1ccccc1OCC(=O)Nc1ccc2c(c1)OCCO2,"inconclusive: 13 µM [activator, partial curve]",–
CC1CCN(C(=S)Nc2ccc(SC(F)F)cc2)CC1,–,inactive: 9.06%
Cc1ccc(/C=N/Nc2ccc(Cl)c(C(=O)O)c2)s1,"inconclusive: 0.731 µM [activator, partial curve]",–
O=C(NCc1cccs1)c1ccc2c(c1)OCCO2,"inconclusive: 20.6 µM [activator, partial curve]",–
Cc1ccccc1-c1nc(-c2ccc(NC(=O)c3ccc(Br)o3)cc2)no1,"inconclusive: 23.1 µM [activator, single point]",–
O=C(CSc1nc2ccccc2n1Cc1ccccc1Cl)N/N=C/c1ccccc1C(=O)O,"inconclusive: 20.6 µM [activator, partial curve, poor fit]",–
O=C(O)CCC(=O)N1CCN(c2nc(-c3ccccc3)c3cc(Br)ccc3n2)CC1,–,inactive: 1.14%
CCCCOc1ccc(C(=O)NCc2ccccn2)cc1,"inconclusive: 23.1 µM [activator, single point]",–
O=C(OC1CCc2ccccc2C1=O)c1ccccc1O (configuration not stated),–,inactive: -32.1%
Cc1cccc(NC(=O)c2ccc3c(c2)OCCO3)c1,"inconclusive: 5.8 µM [activator, single point]",–
COc1ccc(NC(=O)c2ccc(OC)cc2)cc1,"inconclusive: 2.91 µM [activator, full curve]",–
CCNc1nc(NCC)nc(-n2nc(C)cc2C)n1,"inconclusive: 6.51 µM [activator, single point]",–
Cc1ccccc1NC(=O)CSc1nc2ccccc2o1,active: 4.11 µM,–
COc1ccc(-c2nc(-c3ccc(O)cc3O)cs2)cc1OC,"inconclusive: 20.6 µM [activator, partial curve]",–
COc1ccccc1N1CCN(/N=C/c2cccc(Cl)c2)CC1,active: 16.4 µM,–
CN(C(=O)c1ccncc1)c1nnc(-c2cccnc2)s1,"inconclusive: 23.1 µM [activator, partial curve]",–
COCCCNC(=O)c1c[nH]c2ccc(S(=O)(=O)N3CCc4ccccc43)cc2c1=O,–,inactive: -9.37%
Cc1ccc2[nH]c(-c3cccc(N)c3)cc2c1,active: 2.31 µM,–
Cc1ccc(NC(=O)ON=C2CCCC2)cc1,active: 20.6 µM,–
